# Measured values published in PMC4585734.
# The chains behind the UniProt entries cited, without tags or fusion partners.
# UniProt Q13148: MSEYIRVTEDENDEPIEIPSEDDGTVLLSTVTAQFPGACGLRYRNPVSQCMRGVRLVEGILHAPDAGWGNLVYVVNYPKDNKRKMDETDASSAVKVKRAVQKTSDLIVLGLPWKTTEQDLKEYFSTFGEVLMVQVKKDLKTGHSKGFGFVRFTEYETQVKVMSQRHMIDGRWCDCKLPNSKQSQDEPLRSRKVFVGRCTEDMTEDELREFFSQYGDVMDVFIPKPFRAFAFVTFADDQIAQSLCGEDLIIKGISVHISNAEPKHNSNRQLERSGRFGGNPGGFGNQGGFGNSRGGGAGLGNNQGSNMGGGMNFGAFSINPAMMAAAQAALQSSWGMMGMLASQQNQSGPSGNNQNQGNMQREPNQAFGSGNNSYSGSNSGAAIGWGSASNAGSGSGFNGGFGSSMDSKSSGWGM
# UniProt P35637: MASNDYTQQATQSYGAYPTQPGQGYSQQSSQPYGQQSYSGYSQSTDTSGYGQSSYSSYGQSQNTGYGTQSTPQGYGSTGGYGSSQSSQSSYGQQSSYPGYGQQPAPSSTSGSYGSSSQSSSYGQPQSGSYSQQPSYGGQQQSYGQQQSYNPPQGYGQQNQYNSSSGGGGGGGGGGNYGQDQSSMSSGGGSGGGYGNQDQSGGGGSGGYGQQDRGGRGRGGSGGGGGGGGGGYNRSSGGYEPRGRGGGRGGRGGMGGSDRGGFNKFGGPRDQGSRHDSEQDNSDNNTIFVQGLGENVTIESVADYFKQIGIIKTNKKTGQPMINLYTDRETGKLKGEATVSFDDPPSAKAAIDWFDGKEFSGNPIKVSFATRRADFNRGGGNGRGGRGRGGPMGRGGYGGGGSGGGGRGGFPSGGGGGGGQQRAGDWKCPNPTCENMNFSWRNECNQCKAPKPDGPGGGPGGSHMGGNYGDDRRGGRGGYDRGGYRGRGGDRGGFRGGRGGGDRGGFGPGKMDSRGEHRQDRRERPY
# Results are given in words; binding and its absence hold for the method and conditions named. In cells and extracts the contact can be indirect. Some entries that bind do so weakly or less than the wild type.
# What was measured:
# FLAG-TDP-43 = FLAG-TDP-43 (UniProt Q13148); assay: co-IP; live HEK293 cells treated with 0.1% formaldehyde before lysis (NP40 lysis buffer); FLAG-IP, 4 °C, 2 hr; cross-links reversed by heating; in one experiment in-cell RNase A treatment before cross-linking
# FLAG-FUS = FLAG-FUS (UniProt P35637); assay: as above
binding (FLAG-TDP-43),binding (FLAG-FUS),Substance
binds,–,endogenous FUS (HEK293) (from UniProt P35637 1-526)
–,binds,endogenous TDP-43 (HEK293) (from UniProt Q13148 1-414)
